Data as given in PubChem BioAssay (NCI).
Several values for one entry are separate records, joined by “and”; a condition that tells them apart may be missing. Identical values can stand only once.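 Grown in 96-well plates, cells were treated for 48 hours with each compound at five concentrations. Insufficient inhibition: endpoint recorded as highest concentration tested. GI50: concentration for 50% inhibition of growth. TGI: concentration producing complete growth inhibition.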

System: NCI-H322M lung
Assay: NCI anticancer screen, dose series, 48 h

| Structure (SMILES) | TGI | GI50 |
| --- | --- | --- |
| C/C(=C\c1ccccc1)C(=O)CCN1CCOCC1 | > 100 µM |  |
| C=CCC1([C@H](C)[C@@H](OC(C)=O)c2cc(OC)c(OC)c(OC)c2)C[C@@H](OC)CCC1=O (stereo partly specified) | 69.9 µM |  |
| Cc1ccncc1.[O]=[Ge].[O]=[Ge].[O]=[Ge].[O]=[Ge].[O]=[Ge].[O]=[Ge][OH].[O]=[Ge][OH] | > 100 µM | > 100 µM |
| Cc1occc1C(=S)Nc1ccc(Cl)c(COC(C)(C)C)c1 | 36.1 µM |  |
| COC(=O)[C@H](Cc1cn(C)cn1)NC(=O)[C@H](Cc1c[nH]c2ccccc12)NC(=O)Nc1cc(C(F)(F)F)cc(C(F)(F)F)c1 | > 10 µM | > 10 µM |
| CC(C)(C)C[C@H]1NC(C(=O)NCC[C@H](O)CO)[C@H](c2cccc(Cl)c2)[C@@]12C(=O)Nc1cc(Cl)c(F)cc12 (stereo partly specified) | 33.6 µM | 16.5 µM |
| CCCCN1CCN(c2ccc3nc(-c4ccc5nc(-c6ccc(C(F)(F)F)cc6)[nH]c5c4)[nH]c3c2)CC1 | 2.91 µM | 1.53 µM |
| CC1(C)SC2C(NC(=O)C(N)c3ccccc3)C(=O)N2C1C(=O)O (stereo unspecified) | > 100 µM |  |
| CC(=O)NC(CCCNCc1ccccc1)C(=O)NCc1ccccc1 (stereo unspecified) | > 100 µM |  |
| COc1cc(C2c3cc4c(cc3[C@@H](Nc3ccc(C#N)cc3)C3COC(=O)[C@H]23)OCO4)cc(OC)c1O (stereo partly specified) | 24.7 µM and 46.1 µM and 33.3 µM | 2.56 µM and 3.22 µM |
| CCCCCCCCCC[C@H](O)[C@H]1CC[C@H]([C@H]2CC[C@H]([C@H](O)CC[C@H](O)CCCCCCC[C@@H](O)CC3=C[C@H](C)OC3=O)O2)O1 | > 100 µM |  |
| N#Cc1nc(-c2cc([N+](=O)[O-])cc([N+](=O)[O-])c2)oc1N | > 10 µM |  |
| C=C(C)CCC(=O)[C@](C)(O)[C@H]1[C@H](O)C[C@@]2(C)[C@@H]3CCc4c(cc(OC5OC(CO)C(O)C(O)C5O)c(O)c4C)C3(C)C(=O)C[C@]12C (stereo partly specified) | > 100 µM |  |
| COC(=O)CCC1CCc2c(OC)ccc(O)c2C1=O (stereo unspecified) | > 100 µM |  |
| CCC1=CCC23C(=O)C=CC(=O)C2(C1)C(=O)c1cccc(OC)c1C3=O (stereo unspecified) | > 100 µM |  |
| Cc1ccccc1OC(C)C(=O)NN1C(=O)CC(=O)N(c2ccc(Cl)cc2)C1=S (stereo unspecified) | > 100 µM |  |
| Cc1cc2c(C)cc(=O)[nH]c2cc1N | > 100 µM |  |
| O=C(c1ccccc1)C1N=NCC1c1ccc([N+](=O)[O-])cc1 (stereo unspecified) | > 100 µM |  |
| C[N+](C)(C)CC(=O)N/N=C(/Cc1nc2c3c(ccc2[nH]c1=O)C(=O)c1ccccc1C3=O)C(=O)Nc1ccc(Cl)c(Cl)c1 | > 100 µM |  |
| Nc1nn2c(C(Br)Br)cc(C(Br)Br)nc2c1[N+](=O)[O-] | 11.2 µM |  |
| COc1ccc(C(=O)/C=C/c2ccc(/C=C/c3cc(OC)c(OC)c(OC)c3)cc2)cc1 | > 100 µM | 19.8 µM |
| O=C1/C(=C/c2ccccc2S)N=C(c2ccccc2)N1c1nc2ccc(Sc3ccccc3)cc2[nH]1 | > 100 µM |  |
| Nc1cc2cccc[n+]2c2cc(Cl)ccc12 |  | 21.9 µM |
| N#C/C(=C1\OC(=O)C(c2ccc(Br)cc2)=C1O)c1ccc(Br)cc1 | 30.3 µM |  |

| Structure (SMILES) | TGI | GI50 |
| --- | --- | --- |
| COC(=O)CCC(NC(=S)N/N=C(\C)c1nccs1)C(=O)OC (stereo unspecified) | > 100 µM |  |
| COC(=O)[C@@H](C)C[C@H](Cc1ccccc1)NC(=O)c1nc([C@@H](C[C@H](C(C)C)N(C)C(=O)[C@@H](NC(=O)[C@H]2CCCCN2C)C(C)C)OC(C)=O)sc1C | > 16.7 µM | 0.00232 µM |
| CCOC(=O)c1[nH]cc(C)c1-c1ccn(-c2ccccc2)c1 | > 100 µM |  |
| O=C1CCSSCCC(=O)NCCN1 | > 100 µM |  |
| COc1cc2c(cc1OC)C(N(C)C)C(c1ccccc1)=C2Cl (stereo unspecified) | 71.4 µM |  |
| O=C(Cn1ccc(=O)[nH]c1=O)Nc1ccc(C(=O)O)c(O)c1 | > 100 µM |  |
| CC1SC(c2c(Cl)cccc2Cl)N(NC(=O)c2[nH]c3ccc(F)cc3c2-c2ccccc2)C1=O (stereo unspecified) | 6.48 µM | 2.18 µM |
| O=C1c2ccccc2CN1c1ccc(O)cc1 | > 100 µM |  |
| COc1cc2c(cc1OCCCCOc1cc(-c3ccc(F)cc3)nc(C)n1)N=C[C@@H]1CCCN1C2=O | 3.27 µM |  |
| COc1ccc(-c2ccc(/C=N/n3c(COc4ccc(Cl)cc4Cl)n[nH]c3=S)o2)c([N+](=O)[O-])c1 | 41.7 µM | 18 µM |
| COc1cccc(NC(=O)CC(=O)N2N=C(N(CCC#N)c3ccc(Cl)cc3)CC2c2ccccc2)c1 (stereo unspecified) | > 100 µM |  |
| N#Cc1cnc2cc(OC[C@H](O)CO)c(NC(=O)CC3CSSC3)cc2c1Nc1ccc(OCc2cccc(F)c2)c(Cl)c1 | 1.3 µM | 0.517 µM |
| O=C(NC(Cc1c[nH]c2ccccc12)C(=O)O)/C(=C/c1ccccc1O)NC(=O)c1ccccc1 (stereo unspecified) | > 100 µM |  |
| C[n+]1c(-c2ccccc2)cc2/c(=C\c3ccc([N+](=O)[O-])cc3)c3ccccc3n21 | > 88.9 µM |  |
| CN(C)S(=O)(=O)c1ccc(NC(=O)COC(=O)c2ccc(S(=O)(=O)N3CCCCC3)cc2)cc1 | > 100 µM | > 100 µM |
| CCOC(=O)C1=C(C(C)=O)CSC(c2ccccc2)=N1 | > 100 µM |  |
| COP(=O)(O)/C=C/C(NC(=O)C(Cl)(Cl)Cl)c1ccccc1 (stereo unspecified) | > 100 µM |  |
| COc1cc2c(cc1OC)C1c3ccccc3CCN1CC2 (stereo unspecified) | > 100 µM |  |
| COc1ccccc1NC(=O)C1=C(C)NC(C)=C(C(=O)Nc2ccccc2OC)C1c1ccccc1F | > 100 µM |  |
| COc1ccc(N2C(C)=C(C#N)C34C(=O)N(c5ccccc5)C(=O)C3=C(O)C=CC24O)cc1 (stereo unspecified) | 49.5 µM | 18 µM |
| Cc1nn(C(=O)Cc2ccccc2)c2c1C(c1ccccc1O)SC(N)=N2 (stereo unspecified) | > 100 µM |  |
| O=C(CP(=O)(O)O)c1cccs1 | > 100 µM |  |
| Nn1c(CCCCCCCCc2nnc(COc3c(O)ccc4ccccc34)n2N)nnc1COc1c(O)ccc2ccccc12 | > 100 µM |  |
| NC(=S)N/N=C(/CC(=O)c1ccccc1)C(=O)Nc1ccc(Cl)c(Cl)c1 | > 100 µM |  |

| Structure (SMILES) | TGI | GI50 |
| --- | --- | --- |
| C1CCSCCCCSCCCCSCCCCSC1 | > 100 µM |  |
| CNC(=O)c1cncc(/C=C/c2ccccc2C)c1 | > 25 µM | > 25 µM |
| Cc1c(C(=O)/C=C/c2csc3ccccc23)[n+](=O)c2ccccc2n1[O-] | 3.9 µM | 1.77 µM |
| CC1=NOC(=O)/C1=C/c1ccccc1O | > 100 µM |  |
| C=C1[C@@H](O)C[C@@]23CC[C@@H]4[C@@]5(C)CC[C@@H](OC(C)=O)C(C)(C)[C@@H]5C[C@@H](OC5OC(COC(C)=O)C(O)C(O)C5O)[C@@]4(C)C2=CC[C@H]3[C@H]1C (stereo partly specified) | 25.4 µM |  |
| CN1CCN(CCc2cccc(C(=O)c3cnn(-c4ccc(F)cc4)c3N)c2)CC1 | > 25 µM | > 25 µM |
| Cc1ccc(S(=O)(=O)N2CCSCCSCCSCCSCC2)cc1 | > 100 µM |  |
| O=C(CC(=O)CC(O)(C(F)(F)F)C(F)(F)F)CC(O)(C(F)(F)F)C(F)(F)F | > 10 µM |  |
| OC[C@@H](O)[C@H]1NC[C@@H](O)[C@H]1O | > 100 µM |  |
| CC(C)=CCc1c2c(c3occ(-c4ccc(O)c(O)c4)c(=O)c3c1O)C=CC(C)(C)O2 | 14.4 µM |  |
| O=C(O)c1ccc([Se][Se]c2ccc(C(=O)O)cc2)cc1 | 21.4 µM |  |
| CC(C)C(=O)Nc1nc2nc[nH]c2c(=O)[nH]1 | > 100 µM |  |
| CNS(=O)(=O)NN(C)S(=O)(=O)c1ccc(F)cc1 | > 100 µM |  |
| COc1cc(Cl)cc(-c2nn(C(=O)NCCN3CCOCC3)cc2-c2ccncc2)c1 | > 100 µM | 37.8 µM |
| CCCCCCCCCCCCOC(=S)NCCCC | > 100 µM |  |
| CCCCOc1ccc(NC(N)=Nc2ccc(Cl)cc2)cc1 | 16.9 µM |  |
| COc1cc(/C=C/C(=O)O)ccc1C(=O)O/C=C/c1ccccc1 | > 100 µM |  |
| CC(=O)OC[C@]1(C(=O)C(O)c2ccoc2)[C@H](C)CC[C@@]23COC(=O)C2=CCC[C@@H]31 (stereo partly specified) | > 10 µM |  |
| COc1c2c(c3c(c1CCC(=O)O)OC(C)(C)C=C3)OC(C)(C)C=C2 | > 100 µM |  |
| CCCCCCCCCc1cc(=O)c2ccc(OCc3ccccc3)cc2o1 | > 100 µM |  |
| O=C1OC(=O)C(c2c[nH]c3ccccc23)=C1c1c[nH]c2ccccc12 | > 25 µM | > 25 µM |
| COc1cccc(-c2cc(=O)c3c(C)cc(C)nc3[nH]2)c1 | > 100 µM |  |
| Nc1ccn(Cc2ccc(C34CC5CC(CC(C5)C3)C4)c(O)c2)c(=O)n1 | > 100 µM | > 100 µM |
| CC1(C)O[C@@H]2COC(=O)[C@@H]2O1 | > 100 µM |  |

| Structure (SMILES) | TGI | GI50 |
| --- | --- | --- |
| C=C1C(=O)O[C@H]2[C@H]1[C@H](OC(=O)/C(C)=C\C)CC(=C)[C@@H]1[C@H](O)[C@H]3O[C@@]3(C)[C@@]12O | > 100 µM |  |
| C[C@@H](C(=O)Nc1ccc(Cl)cc1)C1CCC(c2ccnc3ccc(F)cc23)CC1 (stereo partly specified) | > 100 µM | 34.9 µM |
| COC(=O)/C=C/C=C(c1ccccc1)c1ccccc1 | > 100 µM | 5.85 µM |
| Cc1ccc(C(=O)O/N=C2/CCC/C2=C\c2ccccc2)cc1 | > 100 µM |  |
| CN(C(=O)C12C3C4C5C3C1(C(=O)O)C5C42)C(C)(C)C (stereo unspecified) | > 100 µM |  |
| O=C(CN1CCCCC1)CC(O)(C(F)(F)F)C(F)(F)F | > 100 µM |  |
| NC(CSCc1ccccc1)C(=O)O (stereo unspecified) | > 100 µM |  |
| CC(C)(C)N=c1n(C(C)(C)C)oc(=O)n1C(C)(C)C | > 100 µM |  |
| CC(=O)OC(C)c1cc2c(s1)C(=O)c1sccc1C2=O (stereo unspecified) | 3.64 µM |  |
| Cc1ccc2c(ccc3c[n+]4c5ccccc5ccc4n32)c1 | 9.82 µM | 2.35 µM |
| CC(C)(C)OC(=O)C#CC[C@H]1CCCC1/C=C/C(O)=C1/C(=O)NC(CCCNC(=O)OC(C)(C)C)C1=O (stereo partly specified) | > 100 µM |  |
| Oc1ccc(-c2nnc3sc(-c4ccc(F)cc4)nn23)cc1 | > 100 µM | > 100 µM |
| ClCCn1c(CCl)nc2ccc(Cl)cc21 | 14.5 µM | 4.39 µM |
| CCCC[C@H](NC(=O)[C@H]1CCCN1C)C(=O)N(C)[C@H](C[C@@H](OC(C)=O)c1nc(C(=O)N[C@@H](Cc2ccccc2)C[C@H](C)C(=O)OCC)cs1)C(C)C | > 33.3 µM | 0.0176 µM |
| COc1cccc(/C=C/C(=O)c2cccc(Nc3nc(Nc4ccccc4)nc(Nc4ccccc4)n3)c2)c1 | > 100 µM | > 40.9 µM |
| CCN(CC)CCn1ccc(=O)c2cc3c(=O)ccn(CCN(CC)CC)c3c(C)c21 | 17.1 µM |  |
| C[C@H](Nc1ncnc2nc[nH]c12)c1cc2cccc(Cl)c2c(=O)n1-c1ccccc1 | 58.2 µM | 8.5 µM |
| CCC(C(=O)O)c1ccc(OCc2ccccc2)cc1 (stereo unspecified) | > 100 µM |  |
| O=C(c1ccc(F)cc1)c1cccc(C(=O)c2ccc(F)cc2)n1 | > 100 µM |  |
| CC(C)=C[C@@H]1C[C@H](n2cc(C)c(=O)[nH]c2=O)ON1CCO | > 100 µM |  |
| COc1ccc(Nc2nc3ccc(C(F)(F)F)cc3nc2C(=O)O)cc1OC | > 100 µM |  |
| CNC(=O)OCc1nc(SC2CCCCO2)n(C)c1COC(=O)NC (stereo unspecified) | > 100 µM |  |
| O=C1c2ccccc2-c2c1c1ccccc1c(=O)n2CCCNCCCNCCCn1c2c(c3ccccc3c1=O)C(=O)c1ccccc1-2 |  | < 0.0245 µM |
